# Out of some 46,000 compounds screened, about 60 (0.1%) were called active. Inconclusive results (about 3%) are left out. Calls follow the shape of the dose curve; as a rule, active = well fitted inhibition curve with a large enough effect; inconclusive = small, poorly fitted or top-dose-only effect; inactive = no such curve, though single readings can be large or run the other way. This is one part of the list.
# Test: Primary qHTS assay for Inhibitors of ovarian cancer metastasis using an organotypic tumor microenvironment (TME) model. Also: nearly all actives have a fitted effect of over 65% in size.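 As to activity change, negative = inhibition: plate controls were DMSO wells for no effect and tomatine positive control wells for full effect.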
# Settings: SKOV3ip1-GFP adhesion/invasion on 3D omental model, fluorescence; series mostly up to 45.8 µM; activity change, negative = inhibition: at the top concentration
# How it was run: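 qHTS, 4-pt dose (0.36-46 umol/L); SKOV3ip1-GFP, 1,200 cells/well, no FBS; primary omental fibroblast/mesothelial co-culture 48 h pre-grown; 2 h RT + 16 h 37 C; PBS wash, 4% PFA; GFP count 488/509 nm.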
Structure (SMILES),"activity change, negative = inhibition",outcome
CCOc1ccc(C2C(C(=O)Nc3ccccc3OC)=C(C)Nc3c(C(=O)Nc4cccc(C)c4)cnn32)cc1 (stereo not drawn),inactive: -1.53%,
Cc1cccc(C)c1NS(=O)(=O)c1ccc2c(c1)[C@H]1C=CC[C@H]1[C@@H](c1ccc(Cl)cc1)N2,inactive: 3.03%,
CCn1c(CC2C(=O)Nc3ccccc32)nc2ccccc2c1=O (stereo not drawn),inactive: -16.2%,
COc1ccc(CN(Cc2ccco2)C(=O)c2ccccc2F)cc1,,inactive
COc1ccc(CCNC(=O)c2cnc3sc(N4CCOCC4)nn3c2=O)cc1,inactive: -2.11%,
CCOC(=O)c1cnc2c(ccc3ccccc32)c1Nc1cccc(Cl)c1,inactive: 2.95%,
CC1CCN(c2oc(-c3cccs3)nc2S(=O)(=O)c2ccccc2)CC1,inactive: -12.2%,
CCOc1ccc(CNC(=O)C2CCN(c3nc4ccccc4nc3C(F)(F)F)CC2)cc1OC,inactive: 7.38%,
CCc1c(C)sc2c1CCN(Cc1ccccc1C#N)C2c1ccccc1 (stereo not drawn),inactive: -21.5%,
COc1ccc(-n2nc3ccc(NC(=O)c4cccc(OCCC(C)C)c4)cc3n2)cc1,inactive: 9.53%,
COc1ccc(-n2cc(-c3ccc4c(c3)OCO4)n(CC(=O)Nc3cc(Cl)ccc3C)c2=O)cc1,inactive: -3.57%,
Cc1nn(C)c2c1c(-c1ccccc1)cc(=O)n2Cc1ccc(F)cc1,inactive: 1.97%,
COc1ccc(C2=NS(=O)(=O)N(C)C(C(=O)NC(C)c3ccccc3)=C2)cc1 (stereo not drawn),inactive: 0.735%,
COc1ccc(C)cc1NC(=O)c1nnn(Cc2cccc(Br)c2)c1N,inactive: -27.5%,
COc1ccc(-c2nc3sc(CCNC(=O)Cc4ccccc4)c(C)n3n2)cc1,,inactive
Cc1ccc(NC(=O)CCC(=O)N2Cc3ccccc3Oc3ncccc32)cc1Cl,inactive: 7.25%,
CCOC(=O)c1cnc2ccc(OC)cc2c1Nc1ccc(OCc2ccccc2Cl)cc1,inactive: 0.947%,
COc1ccccc1CNC(=O)C(NS(=O)(=O)c1ccc2c(c1)CCN2C(C)=O)C(C)C (stereo not drawn),,inactive
COc1ccc(CNC(=O)c2cnc(N3CCCC3)nc2C)c(OC)c1,inactive: -1.07%,
CCc1ccc(C(=O)c2cn(CC(=O)Nc3cc(OC)ccc3OC)c3ccc(Cl)cc3c2=O)cc1,inactive: -20%,
CCN(C(=O)CSc1nc2ccccc2n1CC(=O)N(C)C1CCCCC1)c1ccccc1,inactive: -3.6%,
CCOC(=O)c1cc(-c2ccccc2)n(CCC(=O)NCCc2ccccc2)c1C,inactive: -6.54%,
Cc1ccc2oc(C(=O)Nc3ccc(S(=O)(=O)N4CCCCC4C)cc3)cc(=O)c2c1 (stereo not drawn),inactive: -14.9%,
CCN(CC)S(=O)(=O)c1ccc2c(c1)N(CC(=O)NCCCN1CCN(c3ccc(OC)cc3)CC1)C(=O)CO2,inactive: -6.03%,

Structure (SMILES),"activity change, negative = inhibition",outcome
CCCS(=O)(=O)N1CCC(n2c(C)nc3cccnc32)CC1,inactive: 4.33%,
CCOC(=O)c1ccc(NC(=O)N2CC3CCCN3c3ccccc32)cc1 (stereo not drawn),inactive: 2.29%,
Cc1ccc2nc(-c3cccs3)c(Nc3ccc4c(c3)OCCO4)n2c1,inactive: -3.65%,
O=C(Cn1cc(S(=O)(=O)N2CCCC2)c(S(=O)(=O)N2CCCC2)c1)Nc1ccc(F)cc1,inactive: 25.2%,
CCC1CCCCN1C(=O)CSc1nnc(-c2ccc(OC)c(OC)c2)o1 (stereo not drawn),inactive: 17.4%,
CC(C)(C)C1CCc2c(sc(NC(=O)c3noc4c3CCCC4)c2C#N)C1 (stereo not drawn),,inactive
CC(=O)c1cccc(NC(=O)CCc2c(C)nc3nc(CN)nn3c2C)c1,inactive: 14.6%,
COc1ccccc1NC(=O)CSc1cn(CC(=O)N2CCCC2)c2ccccc12,inactive: 6.57%,
COc1ccc(Cl)cc1Nc1ccc2cc(S(=O)(=O)N3CCCCC3)ccc2n1,inactive: 2.44%,
CCOc1ccc(N2CC(C)Cn3c2nc2c3c(=O)n(Cc3c(F)cccc3Cl)c(=O)n2C)cc1 (stereo not drawn),inactive: 5.75%,
CCOc1ccc(NC(=O)c2ccc(F)c(S(=O)(=O)N(Cc3ccc(C(=O)OC)cc3)Cc3ccc(OC)c(OC)c3)c2)cc1,inactive: 4.54%,
COc1ccccc1NC(=O)C1=C(C)Nc2nc3ccccc3n2C1c1ccccc1Cl (stereo not drawn),inactive: 4.62%,
CN(C)c1ncc(C(=O)NCc2ccc(Cl)cc2)cn1,inactive: 1.27%,
CCC(=O)N1CCc2cc(S(=O)(=O)NCc3ccc(C)cc3)ccc21,inactive: 1.98%,
CCOCCc1nnc(NC(=O)C(=O)c2cc(C)n(-c3ccc(Cl)cc3)c2C)s1,inactive: -5.97%,
Cc1cc2n(n1)CCCN2C(=O)Nc1ccc(F)c(Cl)c1,inactive: 1.3%,
Cc1ccc(-c2nnn3c2nc(NC2CCC(C)CC2)c2ccccc23)cc1 (stereo not drawn),,inactive
O=C(CSc1ncc(-c2ccccc2)[nH]1)Nc1cccc(Br)c1,inactive: -1.55%,
Cc1cc(OCC(=O)N2CCC(c3nc4ccccc4s3)CC2)ccc1Cl,inactive: -7.26%,
COc1cccc(-c2nc3c(C#N)c[nH]n3c2NC2CCCC2)c1OC,inactive: -9.42%,
CC1CCCCN1C(=O)c1ccc2c(c1)N(Cc1ccc(F)cc1)C(=O)c1ccccc1S2(=O)=O (stereo not drawn),,inactive
COc1cc2nc(NC(=O)c3ccc(S(=O)(=O)N4CCc5ccccc54)cc3)sc2cc1OC,inactive: -6.69%,
COc1cccc(-n2c(C)nc3cc(C(=O)O)ccc32)c1,inactive: 4.08%,
COC(=O)CN1C(C(=O)c2ccccc2)=C(OC(=O)c2ccc(F)cc2)c2ccccc2S1(=O)=O,inactive: -0.955%,

# Reference: PubChem BioAssay AID1963576 (National Center for Advancing Translational Sciences (NCATS), 2024)
